Assay results published in PubChem BioAssay AID686971 (National Center for Advancing Translational Sciences (NCATS), 2013).
Among all 360,000 compounds or so, about 7,500 (2.1%) were called active. The shares of active, inactive and inconclusive entries below differ from those in the screen. The call rests on the fitted dose curve; in most records, active means well fitted cell-killing curve with a large enough effect; inconclusive means small, poorly fitted or top-dose-only effect, or effect the other way, or another doubt; inactive means no such curve, though single readings can be large or run the other way. Potencies of inconclusive entries are left out as doubtful fits.
Potency means the concentration at half of the fitted maximal effect; tags describe the fitted curve by direction and shape.

Test: qHTS for induction of synthetic lethality in tumor cells producing 2HG: qHTS for the HT-1080-IDH1KD cell line;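 on activity, negative = toxicity: 0% = DMSO wells and -100% = cell-free medium wells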
Details: HT-1080 IDH1 knockdown viability, ATP luminescence, 48 h; activity, negative = toxicity: at 46.1 µM (top of the series) unless noted
Procedure, shortened: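 Viability of IDH1-knockdown HT-1080 fibrosarcoma cells was assessed by CellTiter-Glo after 48 h at 37 °C with titrated compound; concentration-effect curves were classified by fit quality and response size.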
In the case of `Cc1ccc(C(=O)N/C(=C\c2cccs2)C(=O)NCc2ccncc2)cc1`, the Potency is reported as “inactive”. In the case of `NC(N)=Nc1ccc(C=C2C=Cc3ccccc32)cc1`, the Potency is reported as inconclusive [cytotoxic, single point]. For `COc1ccc(-c2coc3c(C(=O)Nc4cc(OC)c(OC)c(OC)c4)cccc23)c(C)c1`, the Potency was inconclusive [cytotoxic, partial curve]. For `Cc1c(CCOC(=O)C23CC4CC(CC(C)(C4)C2)C3)sc[n+]1Cc1ccccc1`, the Potency was active: 23.1 µM. In the case of `C=CCNC(=O)C(=O)Nc1ccc2c(c1)N(S(=O)(=O)c1cccs1)CCC2`, the Potency is reported as inconclusive [cytotoxic, single point]. With `CC(C)N=C(NS(=O)(=O)c1ccccc1)C(Cl)(Cl)Cl` the Potency was active: 7.31 µM. For `CC(C)(C)c1ccc(-c2noc(CCC(=O)N3CCOCC3)n2)cc1`, the Potency was “inactive”. With `CCN1C(=O)C2C(c3cccc(F)c3)NC(C)(C(=O)OC)C2C1=O` (centres undefined) the Potency was “inactive”. With `Cc1ccc2nc(Cl)c(/C=N/NC(=O)c3ccccc3O)cc2c1` the Potency was inconclusive [cytotoxic, single point]. With `COc1ccc(C2CC(c3ccc(Cl)cc3)=NN2c2ccc(S(N)(=O)=O)cc2)cc1` (centres undefined) the Potency was inconclusive [cytotoxic, partial curve]. For `CCN(CC(=O)Nc1c(F)cccc1F)C(=O)c1cnccn1`, the Potency was “inactive”. With `CCC/C=C/c1ccc(CN2C(CC(C)C)C(=O)N(Cc3cn(Cc4ccco4)nn3)CCS2(=O)=O)cc1` (centres undefined) the Potency was inconclusive [cytotoxic, single point]. For `CC(C)(C)C1C/C(=C/c2ccccn2)C(=O)/C(=C/c2ccccn2)C1` (centres undefined), the Potency was active: 0.651 µM. In the case of `Fc1ccc2nncc(SCc3ccccc3Cl)c2c1`, the Potency is reported as “inactive”. With `Cc1cc(/C=N/NC(N)=S)c(C)n1-c1ccc(Cl)c(Cl)c1` the Potency was inconclusive [cytotoxic, single point]. With `Cc1c(C(=O)Nc2cccc([N+](=O)[O-])c2)cnn1-c1ccccc1` the Potency was “inactive”. With `O=C(CSc1nnc(Nc2ccccc2F)s1)Nc1cccc(S(=O)(=O)N2CCCCC2)c1` the Potency was inconclusive [cytotoxic, partial curve]. With `S=C1NC(c2cccs2)=CC(c2ccc(Br)cc2)N1` (centres undefined) the Potency was inconclusive [cytotoxic, single point]. For `Cc1ccc(Nc2cccccc2=O)cc1`, the Potency was active: 29.1 µM. With `CC1C(=O)C(C)C(c2cc(Br)ccc2O)NC1c1cc(Br)ccc1O` (centres undefined) the Potency was inconclusive [cytotoxic, single point]. In the case of `Cc1ccc(OCCN2CCC2(C)C(=O)NCc2cccc3ccccc23)cc1` (centres undefined), the Potency is reported as inconclusive [cytotoxic, single point]. For `CCCCCC(=O)Nc1cccc(-c2nc3ncccc3o2)c1`, the Potency was “inactive”. For `Cn1c(=O)c2c(nc(N/N=C/c3cccs3)n2C)n(C)c1=O`, the Potency was inconclusive [rising, partial curve]. With `Cc1cccc(OCC(=O)Nc2ccccc2N2CCN(C(=O)C(C)C)CC2)c1C` the Potency was “inactive”. In the case of `COc1ccc(C(=O)NC(C)C2CC3CCC2C3)c(OC)c1` (centres undefined), the Potency is reported as “inactive”. In the case of `CC1(C(=O)Nc2ccc3c(c2)OCO3)Cc2c(-c3cccc(C(F)(F)F)c3)ccnc2O1` (centres undefined), the Potency is reported as active: 11.6 µM. For `CCc1cccc(N=c2c([N+](=O)[O-])nn(-c3ccc(Cl)cc3)n2O)c1`, the Potency was inconclusive [cytotoxic, single point]. With `CC(=O)c1ccc(-c2cnc3c(NC=O)cc(-c4ccc(C(=O)NC5CC5)cc4)cn23)cc1` the Potency was active: 7.31 µM. With `COC(=O)C1=C(C(=O)OC)C(C(=O)OC)C(C(=O)OC)C(C(=O)OC)(C(=O)OC)C(C(=O)OC)=C1C(=O)OC` (centres undefined) the Potency was inconclusive [cytotoxic, single point]. For `COc1ccc(N2CCN(C(=O)Nc3cccc(C(F)(F)F)c3)CC2)cc1`, the activity, negative = toxicity was inconclusive: -33.2% [cytotoxic]. For `Cc1ccc(N=N/C(=C\O)C(=O)c2ccc(Cl)cc2)cc1`, the Potency was inconclusive [cytotoxic, full curve]. With `CCOCCC(=O)Nc1ccc2c(c1)c(=O)n(C)n2-c1ccc2ccccc2c1` the Potency was active: 1.46 µM. In the case of `CC1CCCCC12NC(=O)N(CC(=O)Nc1ccc(Cl)c(S(=O)(=O)N3CCOCC3)c1)C2=O` (centres undefined), the Potency is reported as “inactive”. In the case of `COc1ccc(C)cc1-n1nnnc1SCc1csc(C)n1`, the Potency is reported as “inactive”. With `COc1cc(Nc2ccccn2)cc(C(=O)Nc2cccc(C(F)(F)F)c2)c1` the Potency was inconclusive [cytotoxic, single point]. With `COc1cccc(C(=O)C(=O)c2cccc(OC)c2OC)c1OC` the Potency was “inactive”. For `O=C1NC(Cc2c[nH]c3ccccc23)C(=O)N1Cc1cccc2ccccc12` (centres undefined), the Potency was inconclusive [cytotoxic, partial curve]. With `Cc1ccc(NC(=O)CSc2nncs2)cc1Cl` the Potency was “inactive”. With `Cc1ccc(NC(=O)c2ncn(CCCN3CCN(Cc4cccc5ccccc45)CC3)n2)cc1C` the Potency was inconclusive [cytotoxic, single point]. For `CCOc1cc(CNCc2ccccc2)ccc1OCc1ccc(Cl)cc1`, the Potency was inconclusive [cytotoxic, single point]. In the case of `N#Cc1cccc(-n2c(-c3ccccc3)nnc2-c2ccccc2)c1C#N`, the Potency is reported as inconclusive [cytotoxic, single point]. In the case of `Oc1ccc(C=NNc2nc3ccccc3s2)c(O)c1`, the Potency is reported as inconclusive [cytotoxic, partial curve]. For `N/C(=N\OC(=O)c1cccs1)c1cccnc1`, the Potency was inconclusive [rising, single point]. For `Cc1ccc(S(=O)(=O)N(Cc2cccc([N+](=O)[O-])c2)C(=O)N2CCN(C)CC2)cc1`, the Potency was “inactive”. For `C=CCc1ccccc1OCC(O)CN1CCN(CCN2C(=O)c3cccc4cccc(c34)C2=O)CC1` (centres undefined), the Potency was “inactive”. In the case of `CC1CCCC(NC(=O)c2ccc(F)c(S(=O)(=O)N3CCOCC3)c2)C1C` (centres undefined), the Potency is reported as “inactive”. For `O=C(Nc1nc(-c2ccccn2)cs1)c1cc(S(=O)(=O)N2CCOCC2)ccc1F`, the Potency was inconclusive [cytotoxic, partial curve]. For `CCN(CC)CCn1c(SCC(=O)Nc2cccc(OC)c2)nc2c(sc3ccccc32)c1=O`, the Potency was inconclusive [cytotoxic, partial curve]. In the case of `CCNC(=O)C1(C)CCCN(C(=O)c2ccnc(Cl)c2)C1` (centres undefined), the Potency is reported as inconclusive [rising, single point]. With `C[C@@H]1CN([C@@H](C)CO)C(=O)c2cc(NC(=O)Nc3cccc4ccccc34)ccc2O[C@@H](C)CCCCO[C@H]1CN(C)C(=O)c1ccccc1` the Potency was “inactive”. For `O=C(NNC(=S)NC(=O)c1sc2ccccc2c1Cl)c1ccc(Cl)cc1`, the Potency was inconclusive [cytotoxic, partial curve]. For `Cc1cc(NC(=O)C2CCCC2)nc2c1c(=O)oc1ccccc12`, the Potency was “inactive”. For `COc1ccc(CNC(=O)Cn2c(=O)oc3cc(S(=O)(=O)N4CCCC4)ccc32)cc1`, the Potency was “inactive”. For `Cc1ccc2nc(SCc3ccc([N+](=O)[O-])cc3)[nH]c2c1`, the Potency was inconclusive [cytotoxic, single point]. In the case of `O=C(CSc1c2c(nc3cc(Cl)ccc13)CCCC2)NCc1ccco1`, the Potency is reported as inconclusive [cytotoxic, single point]. In the case of `CCc1nc(SCC(=O)NCc2ccco2)c2c3c(sc2n1)CCCC3`, the Potency is reported as inconclusive [cytotoxic, partial curve]. With `COc1cccc(NC(=O)C2C3C=CC(O3)C2C(=O)NCc2cccnc2)c1` (centres undefined) the Potency was inconclusive [cytotoxic, partial curve]. With `CSc1ccc(-c2cccc([N+](=O)[O-])c2)nn1` the Potency was “inactive”. With `CCCCCCN1C[C@H](n2cc(COC(=O)c3ccccc3)nn2)[C@@H](O)C[C@@H]1c1ccc(Cl)cc1` the Potency was inconclusive [cytotoxic, single point]. For `O=C(Cc1cccc(C(F)(F)F)c1)N1CCCC1`, the Potency was “inactive”. For `CC(C)NC(=O)c1cc2c(-c3ccc(Cl)cc3)nn(C)c2s1`, the Potency was “inactive”. For `O=C(c1ccc(CS(=O)c2cccc(Cl)c2)o1)N1CCN(C2CCCCC2)CC1` (centres undefined), the Potency was “inactive”. With `COc1ccc(NC(C)=O)cc1NC(=O)c1ccc(Cl)cc1` the Potency was “inactive”. For `COc1ccc(C(=O)Nc2ccc(S(=O)(=O)N3CCCCC3C)cc2)c(OC)c1OC` (centres undefined), the Potency was inconclusive [cytotoxic, single point]. For `Cc1cccc(C(=O)Nc2ccccc2C(=O)NCc2ccco2)c1`, the Potency was “inactive”. In the case of `CNC(=O)Nc1cccc(-c2cc(-c3c(Cl)cccc3Cl)no2)c1`, the Potency is reported as inconclusive [cytotoxic, full curve]. With `CCOc1ccc(/C=C/c2[nH]c(=O)[nH]c(=O)c2[N+](=O)[O-])cc1` the Potency was “inactive”. In the case of `Cc1ccc(-n2ncc3c(Nc4c(C)n(C)n(-c5ccccc5)c4=O)ncnc32)c(C)c1`, the Potency is reported as “inactive”. With `CCC(=C/c1sc2ccc3ccccc3c2[n+]1C)/C=C1\Sc2ccc3ccccc3c2N1C` the Potency was active: 5.17 µM. With `Cc1cc(C)nc(NC(=O)c2cccs2)n1` the Potency was “inactive”. With `C=C(C)COc1ccc(-c2n[nH]c(C)c2-c2ccc(OC)c(OC)c2)c(O)c1` the Potency was active: 1.46 µM. In the case of `COc1ccc(CCC2=NCCN2C(CC(C)C)c2nc3ccccc3[nH]2)cc1` (centres undefined), the Potency is reported as inconclusive [cytotoxic, single point]. In the case of `CCO[C@@H]1OC(C(=O)N2CCN(Cc3ccccc3)CC2)=C[C@H](c2ccc(C(F)(F)F)cc2)[C@H]1CCCO`, the Potency is reported as “inactive”. With `Cc1c(Br)cccc1NC(=O)C1(C)CCN1Cc1ccccc1OC(F)F` (centres undefined) the Potency was inconclusive [cytotoxic, single point].
